The other results are listed elsewhere or left out.

The subject of the test is PF3D7_0420300 AP2 domain 1 (GST-tagged). As to the kind of experiment: gcPBM binding intensity (ln(normalized median fluorescence intensity)); higher = stronger DNA binding. In a few lines:
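Binding of GST-tagged P. falciparum DNA-binding domains, expressed in E. coli and used at about 25 μg on average, was carried out for 1 h in 1× PBS containing 1% milk, 0.2 mg/ml BSA, 0.5% salmon testes DNA and 0.03% Triton X-100. The target was an Agilent 4 × 180k array of primer-extended double-stranded 36-bp intergenic genomic probes plus negative controls, read with Alexa488 anti-GST antibody at 488 nm. Binding intensity is the highest Masliner-normalised natural-log median intensity across replicate spots of either probe orientation.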
“TATATTATGACCACCACACACCTATACACATAACAT [CACACA_site7199]”: the “gcPBM binding intensity (ln)” value stood at 9.62. For “TAATCCTTTCAATATTGTACACATTTGTGTTAAGAA [XGTACX_site1275]”, the “gcPBM binding intensity (ln)” value turned out to be 9.04.

Take “TTTTTTAACTGTATGATGTTATATTAAAAATAAAAA [GTGCAC_negctrl_site463]”: the “gcPBM binding intensity (ln)” value was determined as 8.7. Under “AACGCACGAGGACACACACACATATTTATATTTATA [CACACA_site6608]” stands 9.87.

In the case of “ATTTATATATAATATACACACATATAATACCCATAT [CACACA_site4548]”, the “gcPBM binding intensity (ln)” value came out at 9.76. Take “GGATTAATATATTTACCACACACCCATTTCGATTTT [CACACA_site9200]”: the “gcPBM binding intensity (ln)” value is 9.67. Under “ATCTTGAAGATTATTTGTACACAAAAGTTAAAATAT [XGTACX_site242]” stands 8.99; under “ATATAAATATATTTTACACACAATGGAGAAAAAAAT [CACACA_site6450]”, 9.74.

Consider “TATATAATTATTTATTGTACACTCAAATCGATAAGG [XGTACX_site3216]”, for which the “gcPBM binding intensity (ln)” value is 9.02.

Consider “TATTTATAAATATAAACACACAACATTCTATGCATA [CACACA_site3243]”, for which the “gcPBM binding intensity (ln)” value was 9.43.

Consider “AATGTATTATGTCTTCGTACACATAAATAAATAAAT [XGTACX_site4004]”, for which the “gcPBM binding intensity (ln)” value is 9.12. With “TTGTTTATTTGTAAAGCTAACAAGAAATGTGAATAT [CACACA_negctrl_site931]”, the “gcPBM binding intensity (ln)” value was 9.14.

As for “AACGAACACTATTACACACATACATACATATGTATG [CACACA_site1859]”, the “gcPBM binding intensity (ln)” value is 9.69.

For the sequence “TATACATAAAAATGATGTACATATAATATATATATA [XGTACX_site3863]”, the “gcPBM binding intensity (ln)” value turned out to be 9.18. In the case of “TTATTATTATAAAATTGTACTTGGTATATTAACATA [XGTACX_site5829]”, the “gcPBM binding intensity (ln)” value turned out to be 8.97.

Turning to “ACCTTATTTAGTTATAGTACACAAAGTATTAAACAT [XGTACX_site8418]”, the “gcPBM binding intensity (ln)” value worked out at 9.37. TATATATATTTTTGTGTGCACTATAATATGAAAATA: the “gcPBM binding intensity (ln)” value is 9.22. In the case of “GCGAATAATATGGACATACACACATATACATACATA [CACACA_site2115]”, the “gcPBM binding intensity (ln)” value turned out to be 9.67. Take “TTTTTTTTTTTCTTCACACACAGTACTACTATTTAT [CACACA_site2409]”: the “gcPBM binding intensity (ln)” value was determined as 9.68.

As for “TCATTTATTGAGGAATGTACACGTAAAATTTAATAA [XGTACX_site4086]”, the “gcPBM binding intensity (ln)” value stood at 9.19. In the case of “TTTTTTTTTTTTTTATGTACATATATATATTTTATT [XGTACX_site6915]”, the “gcPBM binding intensity (ln)” value turned out to be 9.38. Regarding “ATTTTTTTTTTTTTTTTCTTTTTTCTTCTTTTTTTT [CACACA_negctrl_site1223]”, the “gcPBM binding intensity (ln)” value was 9.47. In the case of “ATATATATTATAAAATGTACAAATGTTATATAAAAT [XGTACX_site4750]”, the “gcPBM binding intensity (ln)” value is 9.36. Turning to “AATTATAAATTGGACACACACATAAAAAATATGTAC [CACACA_site221]”, the “gcPBM binding intensity (ln)” value amounted to 9.82. On to “TAAAGGAAATAAAAAACATGCAAATATGAAATATAT [TGCATGCA_site745]”, for which the “gcPBM binding intensity (ln)” value amounted to 9.64. “ATACATAATAACTCCTGTACTTAAAAATGTATATAT [XGTACX_site1071]”: the “gcPBM binding intensity (ln)” value is 9.26.

For the sequence “TAAAAAAAAACATGTGCACACGTTTTATCTACATAA [CACACA_site2336]”, the “gcPBM binding intensity (ln)” value stood at 9.59. Take “TTACATATTATACGAAGTACGTACAAATACTTATAT [XGTACX_site8598]”: the “gcPBM binding intensity (ln)” value amounted to 9.18. Turning to “TTTTTTTTTTTTTTTTTTAAACACCTCAAAAAAAAA [CACACA_negctrl_site807]”, the “gcPBM binding intensity (ln)” value stood at 8.41. The same measure for “TTGCATTGTCCATGCGCACACACTACTAGAATAATA [CACACA_site3678]”: 9.4; for “AAAATATATATAACTTGTACATATACATACGTATAT [XGTACX_site4570]”: 9.2; for “TGTATATATCAATGTACACACATGCGTATGTTCGTT [CACACA_site7654]”: 9.54. Turning to “TATAAAAAAAATTGCACACATATTATACAGGACGAC [CACACA_site701]”, the “gcPBM binding intensity (ln)” value came to 10.

For the sequence “TGGATGTTAATATAGTGTACATTTATAAGTCAGTAT [XGTACX_site2949]”, the “gcPBM binding intensity (ln)” value stood at 9.45.

As for “GTGGAAAAAAATAATTGTACACAATAATAAATATAT [XGTACX_site2414]”, the “gcPBM binding intensity (ln)” value came out at 9.42. For “GAAAAAAAATCCAAGATGCACTATTATTACAAAAAT [GTGCAC_site9516]”, the “gcPBM binding intensity (ln)” value was determined as 9.28. As to “ATGTAATATATGCGGAAATATATTCACAAGACGTCA [CACACA_negctrl_site373]”, the “gcPBM binding intensity (ln)” value was 9.3. Regarding “GTCAAAAGTTTTTAAGGTACACTTATTTTATTATAA [XGTACX_site7004]”, the “gcPBM binding intensity (ln)” value is 9.22. Consider “CACTAAACATATACACGTACATGCAACGGATTTTTT [XGTACX_site461]”, for which the “gcPBM binding intensity (ln)” value is 9.34. In the case of “ACCTTTATTGTATGAACACACATAAGCTGATACATC [CACACA_site4028]”, the “gcPBM binding intensity (ln)” value turned out to be 9.48. In the case of “AATATATGGTTCCTTGATATTAAATTCAATTTAATG [CACACA_negctrl_site71]”, the “gcPBM binding intensity (ln)” value amounted to 9.12. As to “TGTGTATATGTGCAAAGTACAAAAAAGAAATTATTT [XGTACX_site7569]”, the “gcPBM binding intensity (ln)” value is 9.32. Under “TAAATCTATATCATCACACACACATACATAAATATA [CACACA_site6228]” stands 9.88. In the case of “TAGTATTGTAAAAAAAAAAAAGAAAAAAAAAAAAAA [CACACA_negctrl_site977]”, the “gcPBM binding intensity (ln)” value was found to be 8.75.

On to “TATAATGATGATGATAGTACGTATGAGTTCAAAAAA [XGTACX_site3656]”, for which the “gcPBM binding intensity (ln)” value came to 9.33. As to “TTAAAATCTTGAAAAGTGCATTATCATTTTGTAACG [GTGCAC_site9447]”, the “gcPBM binding intensity (ln)” value was found to be 8.92.

“TATATATTTATATATGCATGTACATTTTTATTTATT [TGCATGCA_site1048]”: the “gcPBM binding intensity (ln)” value stood at 9.42. For the sequence “CTGAATGTATATATTTGTACATATATATATATATAT [XGTACX_site5557]”, the “gcPBM binding intensity (ln)” value worked out at 9.16. For the sequence “AAAAAAAAAAAACACGCATGTACATAAAAATAATCA [TGCATGCA_site142]”, the “gcPBM binding intensity (ln)” value was found to be 9.52. Regarding “GGGTATAATAAAAGCACACACAAAGATATAAATATA [CACACA_site3308]”, the “gcPBM binding intensity (ln)” value came to 9.79. In the case of “TTTTTTTTTTTTAATTAACACACATAAATATATATA [CACACA_site9077]”, the “gcPBM binding intensity (ln)” value was 9.11. As for “TATAGATACCTATACACACACACACGGACATATATA [CACACA_site7585]”, the “gcPBM binding intensity (ln)” value turned out to be 10.2.

In the case of “ATATAAAACAACGGGTGTACAAAAAAATAAATAATA [XGTACX_site4094]”, the “gcPBM binding intensity (ln)” value worked out at 9.56. “AAAGAAATGAAATATACACACATACCTATATACATA [CACACA_site7817]”: the “gcPBM binding intensity (ln)” value came to 9.77. Regarding “TTTTTCTTCTGCATTATGCACACTATAATTCGTTAA [CACACA_site2837]”, the “gcPBM binding intensity (ln)” value is 9.3.

Turning to “TTTTTAATATATAAAGATAATAATAAATAAAATTCA [CACACA_negctrl_site657]”, the “gcPBM binding intensity (ln)” value came out at 8.9.

Source of the values: the supplement of paper PMC11417369.
